Assay results reported in article PMC3226628, “The Golgi Localization of GOLPH2 (GP73/GOLM1) Is Determined by the Transmembrane and Cytoplamic Sequences” (PLoS ONE, 2011).
Results are given in words; binding and its absence hold for the method and conditions named.

What was measured:
Assay in all cases: two-hybrid; Matchmaker GAL4 Two-Hybrid System 3; AH109 (pGBKT7 fusions) mated with Y187 (pGADT7 fusions); growth on SD/-Trp/-Leu/-His/-Ade (++) or SD/-Trp/-Leu/-Ade with 1 mM 3-AT (+), 30°C, 3 d to 8 d
[1] = target: T1, GOLPH2 V (two-hybrid fragment) (human) (UniProt Q8NBJ4)
T1 sequence: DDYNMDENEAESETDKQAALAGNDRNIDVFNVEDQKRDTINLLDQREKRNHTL

[2] = target: T2, GOLPH2-III–IV–V (two-hybrid fragment) (human) (UniProt Q8NBJ4)
T2 sequence: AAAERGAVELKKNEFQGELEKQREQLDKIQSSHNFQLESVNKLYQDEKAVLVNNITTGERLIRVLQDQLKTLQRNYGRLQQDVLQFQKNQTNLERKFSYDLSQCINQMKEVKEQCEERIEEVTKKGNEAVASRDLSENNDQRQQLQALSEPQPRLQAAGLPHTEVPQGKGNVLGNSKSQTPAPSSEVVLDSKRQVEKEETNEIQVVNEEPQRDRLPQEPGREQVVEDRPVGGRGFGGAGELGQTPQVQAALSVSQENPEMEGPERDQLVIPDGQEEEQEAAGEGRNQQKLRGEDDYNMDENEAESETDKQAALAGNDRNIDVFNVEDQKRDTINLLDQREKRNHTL

[3] = target: T3, GOLPH2-IIIA (amino acids 56–152) (human) (UniProt Q8NBJ4)
T3 sequence: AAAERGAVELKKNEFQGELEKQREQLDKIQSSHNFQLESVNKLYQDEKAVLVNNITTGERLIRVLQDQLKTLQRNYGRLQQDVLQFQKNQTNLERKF

[4] = target: T4, GOLPH2 IV (two-hybrid fragment) (human) (UniProt Q8NBJ4)
T4 sequence: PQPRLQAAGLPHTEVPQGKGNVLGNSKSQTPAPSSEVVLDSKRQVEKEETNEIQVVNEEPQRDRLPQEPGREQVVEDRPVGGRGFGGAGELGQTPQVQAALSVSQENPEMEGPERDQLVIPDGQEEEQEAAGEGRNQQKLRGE

binding [1]: no binding | binding [2]: no binding | binding [3]: no binding | binding [4]: no binding
B1: GOLPH2-IIIB (amino acids 153–205) (domain or fragment, UniProt Q8NBJ4 153-205)
chain: SYDLSQCINQMKEVKEQCEERIEEVTKKGNEAVASRDLSENNDQRQQLQALSE
